# Measurements published in PubChem BioAssay AID686979 (National Center for Advancing Translational Sciences (NCATS), 2013).
# The whole screen tested about 420,000 compounds, of which about 50,000 (12%) were called active. This list was built around the results that the source calls inconclusive (neither active nor inactive); the mix of calls is not that of the screen. Calls come from the whole dose curve; as a rule, active = well fitted inhibition curve with a large enough effect; inconclusive = small, poorly fitted or top-dose-only effect; inactive = flat fitted curve, though single readings scatter. Potencies of inconclusive entries are left out as doubtful fits.
# Assay: qHTS for Inhibitors of human tyrosyl-DNA phosphodiesterase 1 (TDP1): qHTS in cells in presence of CPT; note: nearly all actives have a fitted effect of over 55% in size
# Settings: chicken DT40 Tdp1-/-;hTDP1 cells + 20 nM CPT, ATP luminescence, 48 h; activity change, negative = growth inhibition: at 46.2 µM (top of the series)
# Summary of the method: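 Chicken DT40 Tdp1-/- cells complemented with human TDP1, 400 cells/well, exposed to compounds plus 20 nM camptothecin for at least 48 h at 37 C; viability read as ATP content by CellTiter-Glo luminescence.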
# % is set by controls: 0 for no effect and ±100 for the full control effect; potency is the fitted concentration of half-maximal effect; tags give direction and shape of the fitted curve.
SMILES,Potency,"activity change, negative = growth inhibition"
COc1ccc(N2CCN(C(=O)c3c(C)oc4ncn(CC(C)C)c(=O)c34)CC2)cc1,"inconclusive [inhibitor, partial curve]",–
Cc1nn(C)c(-c2n[nH]c(=S)n2-c2ccccc2)c1Cl,inactive,–
c1ccc2c(c1)[nH]c1c(N3CCSCC3)ncnc12,"inconclusive [inhibitor, single point]",–
C[C@@H]1CN([C@H](C)CO)C(=O)CCCn2nncc2CO[C@H]1CN(C)S(=O)(=O)c1cccc(F)c1,inactive,–
C/C=C/C=C/C(=O)N1CC2(CC(c3cccc(NC(=O)/C=C/C)c3)=NO2)C[C@@H]1C(N)=O (stereo not given in full),inactive,–
Cc1c(/C=N/NC(=O)c2ccc3c(c2)OCO3)cnn1C,inactive,–
Cc1nc(-c2ccc(NS(=O)(=O)c3ccccc3)cc2)cs1,inactive,–
Cc1ccccc1NC(=O)/C(C#N)=C/c1ccccc1C(F)(F)F,inactive,–
O=C(Nc1ccc(F)cc1)c1ccc2[nH]c(=O)c(=O)[nH]c2c1,"inconclusive [inhibitor, single point]",–
CCn1cc(C(=O)N2CCN(c3ccccc3OC)CC2)c2cc(OC)c(OC)cc2c1=O,"inconclusive [inhibitor, single point]",–
CCCCCNC1=CC(=O)CC(c2ccccc2)C1 (stereo not given),"inconclusive [inhibitor, single point]",–
CC1=CC=CC2=N/C(=N\S(=O)(=O)c3ccc(F)cc3F)c3ccccc3CN12,inactive,–
COc1ccc(-c2csc(C(NC(C)=O)c3ccccc3)n2)cc1 (stereo not given),"inconclusive [inhibitor, single point]",–
CC(=O)Nc1ccc(Nc2nc(C)c([N+](=O)[O-])c(N(C)c3ccccc3)n2)cc1,"inconclusive [inhibitor, single point]",–
CCN(CC)S(=O)(=O)c1ccc(NC(=O)c2cc(-c3cccs3)nc3ccccc23)cc1,"inconclusive [inhibitor, partial curve]",–
Cc1cc([N+](=O)[O-])cc(/C=N\NC(=O)C2COc3ccccc3O2)c1O (stereo not given),active: 16.4 µM,–
O=C(C[n+]1ccncc1)c1cccc2ccccc12,"inconclusive [inhibitor, single point]",–
Cc1cccc(C)c1-n1nnnc1C(c1ccnc2ccccc12)N1CCN(CCN(C)C)CC1 (stereo not given),"inconclusive [inhibitor, single point]",–
COc1ccc(-n2ncc3c2CC(C)(C)CC3NC(=O)CCCN2CCCC2=O)cc1 (stereo not given),inactive,–
CC(C)(C)c1ccc(OCCNC(=S)Nc2ccccc2)cc1,active: 2.91 µM,–
Oc1ccccc1Nc1nc(NCc2ccccc2)c2ccccc2n1,active: 11.6 µM,–
CC(C)c1ccc(CC(C)C2C3=C(CCCC3=O)OC3=C2C(=O)CCC3)cc1 (stereo not given),"inconclusive [inhibitor, single point]",–
OCC[C@H]1C[C@@H](O)[C@H](O)[C@@]2(Cc3ccccc3CO2)O1,inactive,–
O=S(=O)(c1ccccc1)N(Cc1cccc(F)c1)c1ccccc1,"inconclusive [inhibitor, partial curve, poor fit]",–

SMILES,Potency,"activity change, negative = growth inhibition"
Cc1cccc(N2C(=O)CC(Sc3nc(C)c4c(n3)CCCC4)C2=O)c1 (stereo not given),"inconclusive [inhibitor, single point]",–
O=c1[nH]c(=O)n(Cc2ccco2)c2c1C(C(F)(F)F)(C(F)(F)F)N=C(C1CCCCC1)N2,"inconclusive [inhibitor, single point]",–
Cc1cccc(C)c1NC(=O)N1CCN(c2nc3ccccc3s2)CC1,active: 11.6 µM,–
Cc1ccc(-c2ocnc2C(=O)Nc2ccccc2C(=O)N2CCCC2)cc1,"inconclusive [inhibitor, single point]",–
CN(c1ccc(OCC(=O)N2CCN(c3ccc(F)cc3)CC2)cc1)S(=O)(=O)c1cccs1,"inconclusive [inhibitor, single point]",–
N#Cc1c2ccc(O)cc2n2ccccc12,"inconclusive [inhibitor, single point]",–
O=C(COC(=O)c1ccccc1[N+](=O)[O-])NCCCc1ccccc1,inactive,–
N/C(=N\O)c1ccc(Oc2ccccc2Cl)c([N+](=O)[O-])c1,inactive,–
Cc1ccc(/C=N/NC(=O)c2cc(-c3ccc(C)o3)[nH]n2)cc1,active: 13 µM,–
CC(=O)CCc1ccc(OCC(O)CNC2CCCc3ccccc32)cc1 (stereo not given),"inconclusive [inhibitor, single point]",–
CC(C)(C)c1cc(NC(=O)NN2CCOCC2)nn1-c1c(Cl)cc(Cl)cc1Cl,"inconclusive [inhibitor, single point]",–
Cc1cc(C)c2c(n1)sc1c(N3CCN(CCO)CC3)ncnc12,inactive,–
CC(C)CCn1c(N2CCCC2)nc2c1c(=O)n(C)c(=O)n2C,"inconclusive [inhibitor, single point]",–
CCc1ccc(NC(=O)c2ccc(CNS(=O)(=O)c3ccc4c(c3)C(C)(C)C(=O)N4C)cc2)cc1,"inconclusive [inhibitor, full curve]",–
CCc1ccc(/C=N/n2c(COc3ccccc3)n[nH]c2=S)cc1,"inconclusive [inhibitor, single point]",–
C/C(CC(=O)NC1CCCC1)=N\NC(=O)Cc1csc(N)n1,"inconclusive [inhibitor, single point]",–
COCc1cc(=O)[nH]c(Nc2nc3ccccc3o2)n1,active: 10 µM,–
COC(=O)c1[nH]c2cc(OC)c(OC)cc2c1NC(=O)c1cccc(OC)c1,"inconclusive [inhibitor, partial curve]",–
N#Cc1ccc(-c2ccccc2)nc1SCCN1CCOCC1,inactive,–
COCOc1ccc(/C=C/C(=O)c2c(O)cc(OCOC)cc2OCOC)cc1,"inconclusive [inhibitor, single point]",–
CCOC(=O)c1cnc2c(OC)cccc2c1N1CCN(c2ccccc2F)CC1,active: 18.4 µM,–
COc1ccc2c(c1)C(C)(Cc1ccc(C(=O)c3ccccc3)cc1)C(=O)N2 (stereo not given),"inconclusive [inhibitor, single point]",–
O=C(Nc1ccccn1)c1ccc(S(=O)(=O)N2CCCCC2)cc1,"inconclusive [inhibitor, single point]",–
CCOC(=O)C1=C(O)/C(=C/c2cc(OC)c(O)c(OC)c2)SC1=Nc1ccc(OC)cc1,"inconclusive [inhibitor, full curve]",–

SMILES,Potency,"activity change, negative = growth inhibition"
CCOC(=O)Cc1c(C)nc2c(-c3ccc(OC)cc3)c(C)nn2c1C,"inconclusive [inhibitor, single point]",–
CCOC(=O)c1c(NC(=O)C(C)Oc2ccccc2F)sc(C(C)=O)c1C (stereo not given),"inconclusive [inhibitor, single point]",–
COc1ccc(NC(=S)Nc2cccc(C)n2)cc1,"inconclusive [inhibitor, single point]",–
Cc1ccc(-c2c(C(=O)c3ccc(Br)cc3)[nH]c(N)c2C(=O)NCc2ccc(Cl)cc2)cc1,inactive,–
CCOc1ccc(CCNc2ncnc3onc(C)c23)cc1OCC,active: 2.91 µM,–
COc1ccc(NC(=O)COC(=O)c2ccc3c(c2)OCCO3)cc1,"inconclusive [inhibitor, single point]",–
Cc1cccc(C)c1NC(=S)N(Cc1ccccc1)Cc1cccnc1,inactive,–
O=[N+]([O-])c1cccc2ccc(/C=C/c3ccc(C(F)(F)F)cc3)nc12,"inconclusive [inhibitor, single point]",–
CC(NC(=O)c1cccc(Cn2cc([N+](=O)[O-])cn2)c1)c1ccc(C(C)(C)C)cc1 (stereo not given),"inconclusive [inhibitor, single point]",–
O=C(Nc1cccc(S(=O)(=O)N2CCCC2)c1)c1cccc(S(=O)(=O)N2CCOCC2)c1,"inconclusive [inhibitor, single point]",–
COC(=O)C1=C(C)NC(=O)/C1=C\c1cc(C)n(-c2ccccc2)c1C,–,inconclusive: -30.2% [inhibitor]
Cc1ccc(N2CC(=O)Nc3c(oc4nc(-c5ccccc5)cc(C)c34)C2=O)cc1,inactive,–
CCCNC(=O)C(Cc1cccc(OC)c1)NC(=O)c1ccc(C#N)cc1 (stereo not given),"inconclusive [inhibitor, partial curve, poor fit]",–
CC(C)(C)OC(=O)NCCCCCNC(=O)c1[nH]cnc1C(=O)Nc1ccon1,"inconclusive [inhibitor, single point]",–
O=C(Oc1c(CN2CCOCC2)cc(Cl)c2cccnc12)c1ccccc1Cl,active: 2.31 µM,–
CC(=Nc1ccc(O)cc1)c1sc2ccccc2c1O,active: 14.6 µM,–
COc1ccc(OC)c(NS(=O)(=O)c2ccc(Cl)s2)c1,"inconclusive [inhibitor, single point]",–
Cc1cccn2c(=O)c3cc(C(=O)NCc4ccco4)c(=N)n(C4CCCC4)c3nc12,"inconclusive [inhibitor, single point]",–
CCc1ccc(CN(C)C(=O)c2cc(COc3ccc(-n4cncn4)cc3)on2)cc1,"inconclusive [inhibitor, single point]",–
O=C(COc1ccc2ccccc2c1)NNC(=O)Cc1ccccc1,inactive,–
O=C(Nc1ccc2[nH]ccc2c1)c1cccs1,inactive,–
COc1ccc(NC(=O)c2oc3ccccc3c2NC(=O)c2cc(=O)c3ccccc3o2)cc1,"inconclusive [inhibitor, full curve]",–
